The whole screen tested about 360,000 compounds, of which about 7,500 (2.1%) were called active. Inconclusive results, whose numbers are uncertain, are shown with a selection of clear calls. Calls follow the shape of the dose curve; as a rule, active = well fitted cell-killing curve with a large enough effect; inconclusive = small, poorly fitted or top-dose-only effect, or effect the other way, or another doubt; inactive = no such curve, though single readings can be large or run the other way. No potency is given beside an inconclusive call; the fits are too rough.
Assay: qHTS for induction of synthetic lethality in tumor cells producing 2HG: qHTS for the HT-1080-IDH1KD cell line;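 as to activity, negative = toxicity: 0% = DMSO wells and -100% = cell-free medium wells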
Conditions: HT-1080 IDH1 knockdown viability, ATP luminescence, 48 h; activity, negative = toxicity: at 46.1 µM (top of the series) unless noted
Procedure, shortened: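 % activity derives from luminescence (CellTiter-Glo), normalised to DMSO and no-cell wells. HT-1080-IDH1KD cells, 750/well, had 48 h compound exposure at 37 °C.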
Potency is read from the fitted curve at half-maximal effect; tags tell the direction and shape of the fitted curve.

| SMILES | Potency | activity, negative = toxicity |
| --- | --- | --- |
| C[C@@H]1CCCCO[C@H](CN(C)Cc2ccccc2)[C@@H](C)CN([C@H](C)CO)C(=O)c2cc(NS(=O)(=O)c3ccc(Cl)cc3)ccc2O1 | inconclusive [cytotoxic, single point] |  |
| COc1ccccc1N1CCN(C(=O)c2sc3ncnc(N4CCN(c5ccccn5)CC4)c3c2C)CC1 | active: 29.1 µM |  |
| CN(C)c1ccc(/C=C/c2ccc3ccccc3[n+]2C)cc1 | active: 1.3 µM |  |
| Cc1cccc(C(=O)N=c2c(C#N)cc3c(=O)n4cccc(C)c4nc3n2Cc2ccco2)c1 | inactive |  |
| CC(/C=C/c1ccccc1)=N/NC(=O)c1cccc(Br)c1 | inconclusive [cytotoxic, partial curve] |  |
| Cc1ccc(NC(=O)c2ncn(CCCN(CCCn3cnc(C(=O)Nc4ccc(C)c(C)c4)n3)Cc3ccc4[nH]ccc4c3)n2)cc1C | active: 20.6 µM |  |
| Cc1cccc(C)c1NC(=O)C(NC(=O)CN1C(=O)c2ccccc2C1=O)c1ccccc1 (configuration not stated) | inactive |  |
| CC(=O)Nc1ccc(S(=O)(=O)c2cc(O)ccc2O)cc1 | inactive |  |
| COc1ccc(N2CCN(C(=O)CN(c3cccc(OC)c3)S(=O)(=O)c3ccccc3)CC2)cc1 | inactive |  |
| Nc1ccc(S(=O)(=O)N2CCOCCOCCOCCOCCOCC2)cc1 | inactive |  |
| NC(=O)c1cccc(-c2cnc3c(Nc4cccc(OC(F)(F)C(F)F)c4)nccn23)c1 | inconclusive [cytotoxic, single point] |  |
| Cc1cc2cc(CCNC(=O)C(=O)c3c[nH]c4ccccc34)c(=O)[nH]c2cc1C | active: 13 µM |  |
| CC(=O)Nc1cccc(NC(=O)C(C)N2c3cccc4cccc(c34)S2(=O)=O)c1 (configuration not stated) | inactive |  |
| Cc1cc(C)c(C#N)c(SCC(O)CS(=O)(=O)Cc2ccccc2)n1 (configuration not stated) | inconclusive [rising, single point] |  |
| Cc1nc(C)c(-c2csc(Nc3ccc(F)cc3)n2)s1 | inconclusive [cytotoxic, single point] |  |
| CCN(C(=O)CSc1nnnn1-c1ccccc1)C1CCS(=O)(=O)C1 (configuration not stated) | inconclusive [rising, single point] |  |
| CNC(=S)N1CCc2cc(OC)c(OC)cc2C1COc1ccc(F)cc1 (configuration not stated) | inconclusive [cytotoxic, partial curve] |  |
| Cc1ccc(C(=O)Nc2ccc(Nc3ccccc3)cc2)cc1C | inconclusive [cytotoxic, partial curve] |  |
| N#Cc1cnn2c(-c3cccc(C(F)(F)F)c3)ccnc12 | inactive |  |
| CCN(CC)CCN1C(=O)/C(=C\c2ccc(Cl)c([N+](=O)[O-])c2)SC1=Nc1ccc(OC)cc1 | active: 3.26 µM |  |
| O=C(COC(=O)Cc1ccccc1F)Nc1ccc(Cl)cn1 | inconclusive [rising, partial curve] |  |
| O=C(/C=C/[C@H]1O[C@@H](n2cnc3c(NC(=O)c4ccccc4)ncnc32)[C@H](O)[C@@H]1O)NCc1ccco1 | inactive |  |
| N#Cc1ccsc1NC(=O)c1cnccn1 | inactive |  |
| Cc1cc2c3c(c1)C1(C(=O)N3C(C)(C)CC2C)C(C#N)=C(N)Oc2cc(O)ccc21 (configuration not stated) | inconclusive [cytotoxic, single point] |  |

| SMILES | Potency | activity, negative = toxicity |
| --- | --- | --- |
| O=C(CSc1nc2ccccc2c(=O)n1-c1ccccc1)N/N=C/C=C/c1ccccc1[N+](=O)[O-] | inactive |  |
| COc1ccc(OC)c(C(=O)CSc2nnc(Cc3cccs3)n2CCc2ccccc2)c1 | inconclusive [cytotoxic, single point] |  |
| CCOC(=O)CSc1ccc(S(=O)(=O)N(C)C2CCCCC2)cc1[N+](=O)[O-] | inconclusive [rising, single point] |  |
| OCC1OC(c2ccc(O)cc2O)C(O)C1O (configuration not stated) | inactive |  |
| O=C(CCc1nc2ccccc2c(=O)[nH]1)Nc1ccc(Cl)c(Cl)c1 |  | inconclusive: -39.8% [cytotoxic] |
| COc1ccc(/C=C/CN2CCC(C(=O)NC(c3ccc(F)cc3)c3ccc4ccccc4n3)CC2)cc1 (configuration not stated) | active: 10.3 µM |  |
| C=CCSc1nsc(NC(=O)Nc2cccc(C(C)=O)c2)n1 | active: 16.4 µM |  |
| O=C(Nc1cnn(Cc2ccc(Cl)c(Cl)c2)c1)C12CC3CC(CC(C3)C1)C2 | inconclusive [cytotoxic, single point] |  |
| Cc1cccc[n+]1CC(=O)/C=C1\N(C)c2ccccc2C1(C)C | inconclusive [cytotoxic, partial curve, poor fit] |  |
| CN1CCN(S(=O)(=O)c2ccc(N(C)Cc3cccs3)nc2)CC1 | inactive |  |
| COC(=O)c1cccc(NC(=O)/C=C/c2ccc3c(c2)OCO3)c1 |  | inconclusive: -40.5% [cytotoxic] |
| C=CCN(c1ccccc1)S(=O)(=O)c1cccc(C(=O)NCC2CCCO2)c1 (configuration not stated) | inactive |  |
| C/C(=N/Nc1ccc(C(=O)O)cc1)c1ccc(O)c(O)c1O | inactive |  |
| COc1ccccc1C(=O)NCCC(=O)N1CCN(c2ccc(C(F)(F)F)cn2)CC1 | inactive |  |
| Cc1[nH]n(-c2ccc([N+](=O)[O-])cc2)c(=O)c1C=NCCN1CCN(C(=O)C(C)C)CC1 | inconclusive [cytotoxic, partial curve] |  |
| O=C(Nc1ccc(F)cc1)c1sccc1SCc1cccc(C(F)(F)F)c1 | active: 17.8 µM |  |
| O=C(c1ccc(C(F)(F)F)cc1)N1CCC(=O)N(C(COCc2ccc(Cl)cc2)Cc2ccccc2)CC1 (configuration not stated) | inconclusive [cytotoxic, single point] |  |
| O=C(CCn1c(=O)oc2ccccc21)N1CCN(c2ccccc2F)CC1 | inactive |  |
| CCC1=Nc2cc(C(=O)NCC3CCCO3)ccc2Sc2ccc(Br)cc21 (configuration not stated) | active: 9.2 µM |  |
| Cc1ccc2c(c1)C1CN(C)CCC1N2C(=S)NC(=O)c1ccc(Br)cc1 (configuration not stated) | inactive |  |
| CC1=CC(C)(C)Nc2ccc(OC(=O)CCN3C(=O)c4ccccc4C3=O)cc21 | inconclusive [cytotoxic, single point] |  |
| COc1ccccc1CCNC(=O)CCSc1nc(-c2ccco2)cc(C(F)(F)F)n1 | inactive |  |
| CCCN(CCC)C(=O)c1ccccc1C(=O)N(CCC)CCC | inactive |  |

Source: PubChem BioAssay AID686971 (National Center for Advancing Translational Sciences (NCATS), 2013)
